# This is one part of the list.
# B1: PX9937D-bvu-500-26-500 (Bacteroides vulgatus) (protein)
# chain: DPVSDITDLNYWKTPEQFDSFVFGLHSRFRSHSWNMFLLGEARSDVFGGIPFGGEATQGMERFPYNTLNAENPGISGFGDLYQNINQMNLFISRTLHTDVLTESARNYYLGQVYGLRAYYMYQLYRSWGDVVFTEEPSLGFEVGKLAKAATPAAEIFEQVKKDIESSLSYFGSDYTIKEKKSLWSKAATLMLKADVYLWSAHRDGGEGDARTAKNALVDIQNNISRSNLDLMDTYQGVFAYDNKGNKEIIFTIHNELFEYNLWNGNNDLFPQADYLGKFYNADGTLINTSVENNFGIMRLMVKLENFKKFLPGDTRRDVTLKDVYNKVENGKLELVGVYPHKYWGVMNGSTRVRCDDYPIYRYSDLLLMLAEAKVLLGEDPATEINRVRRRAFGDAYDASTVGFPNQEVDKRPADAVLQERLFEFMLEGKRWYDLRRFGDSYVLDYTPAEPARLLWPINQGALTNNPLLKQTVGY
# Key:
# Experiment in all cases: glycan array binding signal (z-score within array); higher = stronger binding
# Settings in all cases: glycan notation: IUPAC condensed, linker removed
# [1] = molecular target: Gal(b1-3)GlcNAc(b1-3)Gal(b1-4)GlcNAc(b1-2)[Gal(b1-3)GlcNAc(b1-3)Gal(b1-4)GlcNAc(b1-6)]Man(a1-6)[Gal(b1-3)GlcNAc(b1-3)Gal(b1-4)GlcNAc(b1-2)Man(a1-3)]Man(b1-4)GlcNAc(b1-4)[Fuc(a1-6)]GlcNAc
# Method in brief: (§1)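 The binding signal is a Z-score computed within each array. Data were drawn from 3228 arrays in the Consortium for Functional Glycomics database, restricted to those with a known protein sequence. Scores were averaged over arrays of the same protein sequence at different concentrations or buffers, and over linkers, and negative values can be taken as non-binding.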
# [2] = molecular target: Gal(b1-3)GlcNAc(b1-3)Gal(b1-4)GlcNAc(b1-3)Gal(b1-4)GlcNAc(b1-2)[Gal(b1-3)GlcNAc(b1-3)Gal(b1-4)GlcNAc(b1-3)Gal(b1-4)GlcNAc(b1-6)]Man(a1-6)[Gal(b1-3)GlcNAc(b1-3)Gal(b1-4)GlcNAc(b1-3)Gal(b1-4)GlcNAc(b1-2)Man(a1-3)]Man(b1-4)GlcNAc(b1-4)[Fuc(a1-6)]GlcNAc
# Method in brief: as §1
# [3] = molecular target: Gal(b1-3)GlcNAc(b1-3)Gal(b1-4)GlcNAc(b1-6)[Gal(b1-3)GlcNAc(b1-3)]Gal(b1-4)Glc
# Method in brief: as §1
# [4] = molecular target: Gal(b1-3)GlcNAc(b1-3)Gal(b1-4)[Fuc(a1-3)]GlcNAc
# Method in brief: as §1
# [5] = molecular target: Gal(b1-3)GlcNAc(b1-3)Gal(b1-4)[Fuc(a1-3)]GlcNAc(b1-6)[Gal(b1-3)GlcNAc(b1-3)]Gal(b1-4)Glc
# Method in brief: as §1
# [6] = molecular target: Gal(b1-3)GlcNAc(b1-3)GalNAc
# Method in brief: as §1
# [7] = molecular target: Gal(b1-3)GlcNAc(b1-6)Gal(b1-4)GlcNAc
# Method in brief: as §1
# [8] = molecular target: Gal(b1-3)GlcNAc(b1-6)GalNAc
# Method in brief: as §1
# [9] = molecular target: Gal(b1-3)GlcNAc(b1-6)[Gal(b1-3)]GalNAc
# Method in brief: as §1
# Gal(b1-3)GlcNAc6S = molecular target: Gal(b1-3)GlcNAc6S
# Method in brief: as §1
# [10] = molecular target: Gal(b1-3)[Fuc(a1-4)]GlcNAc
# Method in brief: as §1
# [11] = molecular target: Gal(b1-3)[Fuc(a1-4)]GlcNAc(b1-2)Man
# Method in brief: as §1
# [12] = molecular target: Gal(b1-3)[Fuc(a1-4)]GlcNAc(b1-2)Man(a1-3)[Gal(b1-3)[Fuc(a1-4)]GlcNAc(b1-2)Man(a1-6)]Man(b1-4)GlcNAc(b1-4)[Fuc(a1-6)]GlcNAc
# Method in brief: as §1
# [13] = molecular target: Gal(b1-3)[Fuc(a1-4)]GlcNAc(b1-3)Gal(b1-3)[Fuc(a1-4)]GlcNAc
# Method in brief: as §1
# [14] = molecular target: Gal(b1-3)[Fuc(a1-4)]GlcNAc(b1-3)Gal(b1-4)[Fuc(a1-3)]GlcNAc
# Method in brief: as §1
# [15] = molecular target: Gal(b1-3)[Fuc(a1-4)]GlcNAc(b1-6)GalNAc
# Method in brief: as §1
# [16] = molecular target: Gal(b1-3)[GlcNAc(b1-6)]GalNAc
# Method in brief: as §1
# [17] = molecular target: Gal(b1-3)[Neu5Ac(a2-6)]GalNAc
# Method in brief: as §1
# [18] = molecular target: Gal(b1-3)[Neu5Ac(a2-6)]GlcNAc(b1-4)Gal(b1-4)Glc
# Method in brief: as §1
# [19] = molecular target: Gal(b1-3)[Neu5Ac(b2-6)]GalNAc
# Method in brief: as §1
# Gal(b1-4)Gal = molecular target: Gal(b1-4)Gal
# Method in brief: as §1
# [20] = molecular target: Gal(b1-4)GalNAc(a1-3)[Fuc(a1-2)]Gal(b1-4)GlcNAc
# Method in brief: as §1
# [21] = molecular target: Gal(b1-4)GalNAc(b1-3)[Fuc(a1-2)]Gal(b1-4)GlcNAc
# Method in brief: as §1
# Gal(b1-4)Glc = molecular target: Gal(b1-4)Glc
# Method in brief: as §1
# Gal(b1-4)Glc6S = molecular target: Gal(b1-4)Glc6S
# Method in brief: as §1
# Gal(b1-4)GlcNAc = molecular target: Gal(b1-4)GlcNAc
# Method in brief: as §1
# [22] = molecular target: Gal(b1-4)GlcNAc(a1-6)Gal(b1-4)GlcNAc
# Method in brief: as §1
# Gal(b1-4)GlcNAc(b1-2)Man = molecular target: Gal(b1-4)GlcNAc(b1-2)Man
# Method in brief: as §1
# [23] = molecular target: Gal(b1-4)GlcNAc(b1-2)Man(a1-3)Man(b1-4)GlcNAc(b1-4)GlcNAc
# Method in brief: as §1
# [24] = molecular target: Gal(b1-4)GlcNAc(b1-2)Man(a1-3)[Gal(b1-4)GlcNAc(b1-2)Man(a1-6)]Man(b1-4)GlcNAc(b1-4)GlcNAc
# Method in brief: as §1
# [25] = molecular target: Gal(b1-4)GlcNAc(b1-2)Man(a1-3)[Gal(b1-4)GlcNAc(b1-2)Man(a1-6)]Man(b1-4)GlcNAc(b1-4)[Fuc(a1-6)]GlcNAc
# Method in brief: as §1
# [26] = molecular target: Gal(b1-4)GlcNAc(b1-2)Man(a1-3)[Gal(b1-4)GlcNAc(b1-2)Man(a1-6)][Gal(b1-4)GlcNAc(b1-4)]Man(b1-4)GlcNAc(b1-4)[Fuc(a1-6)]GlcNAc
# Method in brief: as §1
# [27] = molecular target: Gal(b1-4)GlcNAc(b1-2)Man(a1-3)[Gal(b1-4)GlcNAc(b1-2)Man(a1-6)][GlcNAc(b1-4)]Man(b1-4)GlcNAc(b1-4)[Fuc(a1-6)]GlcNAc
# Method in brief: as §1
# [28] = molecular target: Gal(b1-4)GlcNAc(b1-2)Man(a1-3)[GlcNAc(b1-2)Man(a1-6)]Man(b1-4)GlcNAc(b1-4)GlcNAc
# Method in brief: as §1
# [29] = molecular target: Gal(b1-4)GlcNAc(b1-2)Man(a1-3)[GlcNAc(b1-4)][Gal(b1-4)GlcNAc(b1-2)Man(a1-6)]Man(b1-4)GlcNAc(b1-4)GlcNAc
# Method in brief: as §1
# [30] = molecular target: Gal(b1-4)GlcNAc(b1-2)Man(a1-3)[Man(a1-6)]Man(b1-4)GlcNAc(b1-4)GlcNAc
# Method in brief: as §1
# [31] = molecular target: Gal(b1-4)GlcNAc(b1-2)Man(a1-6)Man(b1-4)GlcNAc(b1-4)GlcNAc
# Method in brief: as §1
# [32] = molecular target: Gal(b1-4)GlcNAc(b1-2)Man(a1-6)[GlcNAc(b1-2)Man(a1-3)]Man(b1-4)GlcNAc(b1-4)GlcNAc
# Method in brief: as §1
binder,measurement,setting,value
B1,glycan array binding signal (z-score),[1],1.67
same,glycan array binding signal (z-score),[2],0.56
same,glycan array binding signal (z-score),[3],-0.27
same,glycan array binding signal (z-score),[4],-0.059
same,glycan array binding signal (z-score),[5],-0.415
same,glycan array binding signal (z-score),[6],-0.201
same,glycan array binding signal (z-score),[7],-0.622
same,glycan array binding signal (z-score),[8],-0.245
same,glycan array binding signal (z-score),[9],0.148
same,glycan array binding signal (z-score),Gal(b1-3)GlcNAc6S,-0.293
same,glycan array binding signal (z-score),[10],-0.045
same,glycan array binding signal (z-score),[11],0.015
same,glycan array binding signal (z-score),[12],-0.482
same,glycan array binding signal (z-score),[13],-0.373
same,glycan array binding signal (z-score),[14],-0.383
same,glycan array binding signal (z-score),[15],0.041
same,glycan array binding signal (z-score),[16],0.026
same,glycan array binding signal (z-score),[17],-0.258
same,glycan array binding signal (z-score),[18],-0.143
same,glycan array binding signal (z-score),[19],0.063
same,glycan array binding signal (z-score),Gal(b1-4)Gal,-0.328
same,glycan array binding signal (z-score),[20],-0.279
same,glycan array binding signal (z-score),[21],-0.3
same,glycan array binding signal (z-score),Gal(b1-4)Glc,0.83
same,glycan array binding signal (z-score),Gal(b1-4)Glc6S,0.048
same,glycan array binding signal (z-score),Gal(b1-4)GlcNAc,0.081
same,glycan array binding signal (z-score),[22],-0.246
same,glycan array binding signal (z-score),Gal(b1-4)GlcNAc(b1-2)Man,0.153
same,glycan array binding signal (z-score),[23],-0.126
same,glycan array binding signal (z-score),[24],0.209
same,glycan array binding signal (z-score),[25],0.582
same,glycan array binding signal (z-score),[26],2.08
same,glycan array binding signal (z-score),[27],-0.434
same,glycan array binding signal (z-score),[28],-0.074
same,glycan array binding signal (z-score),[29],-0.179
same,glycan array binding signal (z-score),[30],-0.351
same,glycan array binding signal (z-score),[31],-0.199
same,glycan array binding signal (z-score),[32],0.631

# Source: the supplement of paper PMC8728848
